{"source": "the supplement of paper PMC8728848", "binders": {"B1": {"name": "Di AAL2 (Agrocybe aegerita) (protein)", "chain": "MTSNVITQDLPIPVASRGFADIVGFGLDGVVIGRNAVNLQPFLAVKNFAQNAGGWLTTKHVRLIADTTGTGKGDIVGFGNAGVYVSVNNGKNTFADPPKMVIANFGYDAGGWRVEKHLRYLADIRKIGRADIIGFGEKGVLVSRNNGGLNFGPATLVLKDFGYDAGGWRLDRHLRFLADVTGNGHLDIVGFGDKHVFISRNNGDGTFAPAKSVIDNFCIDAGGWKIGDHPRFVADLTGDGTADIIGCGKAGCWVALNNGGGVFGQVKLVINDFGTDKGWQAAKHPRFIADLTGNGRGDVVGFGNAGVYVALNNGDGTFQSAKLVLKDFGVQQGWTVSKHRRFVVDLTGDGCADIIGFGEKETLVSYNDGKGNFGPVKALTNDFSFSGGKWAPETTVCWMANLDSSRHPAPAPMTSNVITQDLPIPVASRGFADIVGFGLDGVVIGRNAVNLQPFLAVKNFAQNAGGWLTTKHVRLIADTTGTGKGDIVGFGNAGVYVSVNNGKNTFADPPKMVIANFGYDAGGWRVEKHLRYLADIRKIGRADIIGFGEKGVLVSRNNGGLNFGPATLVLKDFGYDAGGWRLDRHLRFLADVTGNGHLDIVGFGDKHVFISRNNGDGTFAPAKSVIDNFCIDAGGWKIGDHPRFVADLTGDGTADIIGCGKAGCWVALNNGGGVFGQVKLVINDFGTDKGWQAAKHPRFIADLTGNGRGDVVGFGNAGVYVALNNGDGTFQSAKLVLKDFGVQQGWTVSKHRRFVVDLTGDGCADIIGFGEKETLVSYNDGKGNFGPVKALTNDFSFSGGKWAPETTVCWMANLDSSRH"}}, "assay_in_all_cases": "glycan array binding signal (z-score within array); higher = stronger binding", "settings_in_all_cases": "glycan notation: IUPAC condensed, linker removed", "key": {"[1]": {"biological_target": "Man(a1-2)Man(a1-3)[Man(a1-2)Man(a1-6)]Man", "outline": "(§1)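 Negative Z-scores can be read as non-binding. The Z-score is calculated within each array and then averaged across arrays of one protein sequence at different concentrations or buffers and across linkers. Arrays, 3228 in all, were curated from the Consortium for Functional Glycomics database and kept only where the protein sequence was available.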"}, "[2]": {"biological_target": "Man(a1-2)Man(a1-3)[Man(a1-2)Man(a1-6)]Man(a1-6)[Man(a1-2)Man(a1-2)Man(a1-3)]Man", "outline": "as §1"}, "[3]": {"biological_target": "Man(a1-2)Man(a1-3)[Man(a1-2)Man(a1-6)]Man(a1-6)[Man(a1-2)Man(a1-2)Man(a1-3)]Man(b1-4)GlcNAc(b1-4)GlcNAc", "outline": "as §1"}, "[4]": {"biological_target": "Man(a1-2)Man(a1-3)[Man(a1-6)]Man(a1-6)[Man(a1-2)Man(a1-3)]Man(b1-4)GlcNAc(b1-4)GlcNAc", "outline": "as §1"}, "[5]": {"biological_target": "Man(a1-2)Man(a1-6)[Man(a1-3)]Man(a1-6)[Man(a1-2)Man(a1-2)Man(a1-3)]Man", "outline": "as §1"}, "[6]": {"biological_target": "Man(a1-2)Man(a1-6)[Man(a1-3)]Man(a1-6)[Man(a1-2)Man(a1-2)Man(a1-3)]Man(b1-4)GlcNAc(b1-4)GlcNAc", "outline": "as §1"}, "Man(a1-3)[Man(a1-6)]Man": {"biological_target": "Man(a1-3)[Man(a1-6)]Man", "outline": "as §1"}, "[7]": {"biological_target": "Man(a1-3)[Man(a1-6)]Man(a1-6)[Man(a1-2)Man(a1-3)]Man(b1-4)GlcNAc(b1-4)GlcNAc", "outline": "as §1"}, "[8]": {"biological_target": "Man(a1-3)[Man(a1-6)]Man(a1-6)[Man(a1-3)]Man", "outline": "as §1"}, "[9]": {"biological_target": "Man(a1-3)[Man(a1-6)]Man(a1-6)[Man(a1-3)]Man(b1-4)GlcNAc(b1-4)GlcNAc", "outline": "as §1"}, "[10]": {"biological_target": "Man(a1-3)[Man(a1-6)]Man(b1-4)GlcNAc(b1-4)GlcNAc", "outline": "as §1"}, "[11]": {"biological_target": "Man(a1-3)[Man(a1-6)]Man(b1-4)GlcNAc(b1-4)[Fuc(a1-6)]GlcNAc", "outline": "as §1"}, "Man(a1-6)Man": {"biological_target": "Man(a1-6)Man", "outline": "as §1"}, "Man(b1-4)GlcNAc": {"biological_target": "Man(b1-4)GlcNAc", "outline": "as §1"}, "MurNAc(b1-4)GlcNAc": {"biological_target": "MurNAc(b1-4)GlcNAc", "outline": "as §1"}, "Neu5Ac(a2-3)Gal": {"biological_target": "Neu5Ac(a2-3)Gal", "outline": "as §1"}, "[12]": {"biological_target": "Neu5Ac(a2-3)Gal(b1-3)GalNAc", "outline": "as §1"}, "[13]": {"biological_target": "Neu5Ac(a2-3)Gal(b1-3)GalNAc(b1-3)Gal(a1-4)Gal(b1-4)Glc", "outline": "as §1"}, "[14]": {"biological_target": "Neu5Ac(a2-3)Gal(b1-3)GalNAc(b1-4)Gal(b1-4)Glc", "outline": "as §1"}, "[15]": {"biological_target": "Neu5Ac(a2-3)Gal(b1-3)GalNAc(b1-4)[Neu5Ac(a2-3)]Gal(b1-4)Glc", "outline": "as §1"}, "[16]": {"biological_target": "Neu5Ac(a2-3)Gal(b1-3)GalNAc(b1-4)[Neu5Ac(a2-8)Neu5Ac(a2-3)]Gal(b1-4)Glc", "outline": "as §1"}, "[17]": {"biological_target": "Neu5Ac(a2-3)Gal(b1-3)GalNAc6S", "outline": "as §1"}, "[18]": {"biological_target": "Neu5Ac(a2-3)Gal(b1-3)GlcNAc", "outline": "as §1"}, "[19]": {"biological_target": "Neu5Ac(a2-3)Gal(b1-3)GlcNAc(b1-2)Man", "outline": "as §1"}, "[20]": {"biological_target": "Neu5Ac(a2-3)Gal(b1-3)GlcNAc(b1-2)Man(a1-3)[GlcNAc(b1-4)][Neu5Ac(a2-3)Gal(b1-3)GlcNAc(b1-2)Man(a1-6)]Man(b1-4)GlcNAc(b1-4)GlcNAc", "outline": "as §1"}, "[21]": {"biological_target": "Neu5Ac(a2-3)Gal(b1-3)GlcNAc(b1-2)Man(a1-3)[Neu5Ac(a2-3)Gal(b1-3)GlcNAc(b1-2)Man(a1-6)]Man(b1-4)GlcNAc(b1-4)GlcNAc", "outline": "as §1"}, "[22]": {"biological_target": "Neu5Ac(a2-3)Gal(b1-3)GlcNAc(b1-2)[Neu5Ac(a2-3)Gal(b1-3)GlcNAc(b1-4)]Man(a1-6)[Neu5Ac(a2-3)Gal(b1-3)GlcNAc(b1-2)Man(a1-3)]Man(b1-4)GlcNAc(b1-4)GlcNAc", "outline": "as §1"}, "[23]": {"biological_target": "Neu5Ac(a2-3)Gal(b1-3)GlcNAc(b1-3)Gal(b1-3)GlcNAc", "outline": "as §1"}, "[24]": {"biological_target": "Neu5Ac(a2-3)Gal(b1-3)GlcNAc(b1-3)Gal(b1-4)GlcNAc", "outline": "as §1"}, "[25]": {"biological_target": "Neu5Ac(a2-3)Gal(b1-3)GlcNAc(b1-3)GalNAc", "outline": "as §1"}}, "note": "The other results are listed elsewhere or left out.", "data": [{"binder": "B1", "values": [{"measurement": "glycan array binding signal (z-score)", "setting": "[1]", "result": -0.256}, {"measurement": "glycan array binding signal (z-score)", "setting": "[2]", "result": -0.348}, {"measurement": "glycan array binding signal (z-score)", "setting": "[3]", "result": -0.32}, {"measurement": "glycan array binding signal (z-score)", "setting": "[4]", "result": -0.345}, {"measurement": "glycan array binding signal (z-score)", "setting": "[5]", "result": -0.341}, {"measurement": "glycan array binding signal (z-score)", "setting": "[6]", "result": -0.323}, {"measurement": "glycan array binding signal (z-score)", "setting": "Man(a1-3)[Man(a1-6)]Man", "result": -0.336}, {"measurement": "glycan array binding signal (z-score)", "setting": "[7]", "result": -0.329}, {"measurement": "glycan array binding signal (z-score)", "setting": "[8]", "result": -0.304}, {"measurement": "glycan array binding signal (z-score)", "setting": "[9]", "result": -0.333}, {"measurement": "glycan array binding signal (z-score)", "setting": "[10]", "result": -0.332}, {"measurement": "glycan array binding signal (z-score)", "setting": "[11]", "result": -0.327}, {"measurement": "glycan array binding signal (z-score)", "setting": "Man(a1-6)Man", "result": -0.329}, {"measurement": "glycan array binding signal (z-score)", "setting": "Man(b1-4)GlcNAc", "result": -0.329}, {"measurement": "glycan array binding signal (z-score)", "setting": "MurNAc(b1-4)GlcNAc", "result": 0.692}, {"measurement": "glycan array binding signal (z-score)", "setting": "Neu5Ac(a2-3)Gal", "result": -0.2}, {"measurement": "glycan array binding signal (z-score)", "setting": "[12]", "result": -0.216}, {"measurement": "glycan array binding signal (z-score)", "setting": "[13]", "result": -0.151}, {"measurement": "glycan array binding signal (z-score)", "setting": "[14]", "result": -0.314}, {"measurement": "glycan array binding signal (z-score)", "setting": "[15]", "result": 0.03}, {"measurement": "glycan array binding signal (z-score)", "setting": "[16]", "result": -0.302}, {"measurement": "glycan array binding signal (z-score)", "setting": "[17]", "result": -0.173}, {"measurement": "glycan array binding signal (z-score)", "setting": "[18]", "result": -0.228}, {"measurement": "glycan array binding signal (z-score)", "setting": "[19]", "result": -0.242}, {"measurement": "glycan array binding signal (z-score)", "setting": "[20]", "result": -0.329}, {"measurement": "glycan array binding signal (z-score)", "setting": "[21]", "result": -0.321}, {"measurement": "glycan array binding signal (z-score)", "setting": "[22]", "result": -0.176}, {"measurement": "glycan array binding signal (z-score)", "setting": "[23]", "result": 0.091}, {"measurement": "glycan array binding signal (z-score)", "setting": "[24]", "result": 0.065}, {"measurement": "glycan array binding signal (z-score)", "setting": "[25]", "result": -0.098}]}]}
